Measured values: the antibiotic and cytotoxicity screens of Wong et al. (2023)
This is one part of the list.

How the values were obtained:
HSkMC = human skeletal muscle cells; experiment: cytotoxicity call (relative viability < 0.9); settings: 10 µM
HepG2 = experiment: cytotoxicity call (relative viability < 0.9); settings: 10 µM
S. aureus RN4220 = experiment: growth inhibition call (relative growth <= 0.2); settings: 50 µM

C[C@@H]1CN([C@H](C)CO)C(=O)Cc2cc(NC(=O)Cc3ccccc3)ccc2O[C@H]1CN(C)S(=O)(=O)c1cn(C)cn1
inactive: cytotoxicity call (HSkMC) | cytotoxicity call (HepG2) | growth inhibition call (S. aureus RN4220)

C[C@@H]1CN([C@H](C)CO)C(=O)Cc2cc(NC(=O)c3ccncc3)ccc2O[C@@H]1CN(C)S(=O)(=O)c1ccccc1
inactive: cytotoxicity call (HSkMC) | cytotoxicity call (HepG2) | growth inhibition call (S. aureus RN4220)

CC(C)C(=O)Nc1nnc2n1CCS2
inactive: cytotoxicity call (HSkMC) | cytotoxicity call (HepG2) | growth inhibition call (S. aureus RN4220)

CC(C)(C)OC(=O)C[C@H]1CC=CC[C@@H](CC(=O)N[C@H](CO)Cc2ccccc2)C(=O)N[C@@H](C(C)(C)C)COC1=O
inactive: cytotoxicity call (HSkMC) | cytotoxicity call (HepG2) | growth inhibition call (S. aureus RN4220)

Cc1cc(C(=O)Nc2cccc3c2O[C@@H](CN(C)S(=O)(=O)c2cn(C)cn2)[C@@H](C)CN([C@@H](C)CO)C3=O)n(C)n1
inactive: cytotoxicity call (HSkMC) | cytotoxicity call (HepG2) | growth inhibition call (S. aureus RN4220)

CC[N+](CC)(CC)CCOc1cccc(OCC[N+](CC)(CC)CC)c1OCC[N+](CC)(CC)CC
inactive: cytotoxicity call (HSkMC) | cytotoxicity call (HepG2) | growth inhibition call (S. aureus RN4220)

CO[C@@H]1CN(C)C(=O)c2cc(NS(=O)(=O)CC(F)(F)F)ccc2OC[C@H](C)N(C(=O)NC(C)C)C[C@@H]1C
inactive: cytotoxicity call (HSkMC) | cytotoxicity call (HepG2) | growth inhibition call (S. aureus RN4220)

C[C@H]1CN([C@@H](C)CO)S(=O)(=O)c2ccc(C#Cc3cccnc3)cc2O[C@@H]1CN(C)C(=O)CN(C)C
inactive: cytotoxicity call (HSkMC) | cytotoxicity call (HepG2) | growth inhibition call (S. aureus RN4220)

CO[C@H]1CN(C)C(=O)c2cc(NS(=O)(=O)c3ccccc3C)ccc2OC[C@@H](C)N(S(C)(=O)=O)C[C@@H]1C
inactive: cytotoxicity call (HSkMC) | cytotoxicity call (HepG2) | growth inhibition call (S. aureus RN4220)
